Measured values published in PubChem BioAssay (NCI).
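Five compound concentrations were applied to cells in 96-well plates for 48 hours; endpoints were derived by simple linear interpolation of the resulting dose-response curve. GI50 is the concentration that inhibits growth by half.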 Certain results were filed several times, with different values. They are shown here; other results are not. An entry can have further records. The tests behind the records often covered other concentration ranges, not given here; a value can be the end of its range.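 The concentration for full growth arrest is given as TGI.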

Test system: MDA-MB-468 breast
Test: NCI-60 cell line screen, 48 h

Question: Which results are given for `CC(=O)c1cnc2ccc(-c3cc(Cl)c(O)c(Cl)c3)nc2c1NC1CCC(CN(C)C)CC1` (configuration not stated)?
Answer: GI50: 7.11 nM and 179 nM; TGI: 47.9 nM and 1.32 µM
